T1: FcγRIIa H type extracellular domain, His tag (human, UniProt P12318 34-217)
T1 construct: extracellular domain; also called FcgRIIaH
T1 sequence (looked up): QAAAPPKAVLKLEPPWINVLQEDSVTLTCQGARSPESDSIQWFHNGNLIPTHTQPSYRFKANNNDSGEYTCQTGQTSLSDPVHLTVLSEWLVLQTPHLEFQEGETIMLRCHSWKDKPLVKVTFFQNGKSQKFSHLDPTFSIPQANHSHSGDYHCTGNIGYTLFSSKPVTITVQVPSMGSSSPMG

T2: FcγRIIa R type extracellular domain, His tag (human, UniProt P12318 34-217)
T2 construct: extracellular domain; also called FcgRIIaR
T2 sequence (looked up): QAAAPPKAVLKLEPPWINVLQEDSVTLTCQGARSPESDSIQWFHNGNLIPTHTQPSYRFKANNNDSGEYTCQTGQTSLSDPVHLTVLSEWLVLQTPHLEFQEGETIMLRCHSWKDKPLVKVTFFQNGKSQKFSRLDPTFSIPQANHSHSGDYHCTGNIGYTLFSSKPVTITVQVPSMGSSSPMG

T3: FcγRIIb extracellular domain, His tag (human, UniProt P31994 43-217)
T3 construct: extracellular domain; also called FcgRIIb
T3 sequence (looked up): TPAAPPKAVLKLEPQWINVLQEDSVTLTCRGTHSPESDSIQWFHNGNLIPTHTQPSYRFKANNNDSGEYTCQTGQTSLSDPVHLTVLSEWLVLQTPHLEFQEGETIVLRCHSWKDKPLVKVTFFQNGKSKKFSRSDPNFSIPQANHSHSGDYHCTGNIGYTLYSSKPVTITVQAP


Experiments:
[1] = target: T1, FcγRIIa H type extracellular domain, …; experiment: SPR, KD ratio
[2] = target: T2, FcγRIIa R type extracellular domain, …; experiment: SPR, KD ratio
[3] = target: T4, FcγRIIIa V type extracellular domain, His tag (human, UniProt P08637 in part); experiment: SPR, KD ratio
T4 construct: extracellular domain; also called FcgRIIIaV
T4 sequence (P08637 17-208 F176V): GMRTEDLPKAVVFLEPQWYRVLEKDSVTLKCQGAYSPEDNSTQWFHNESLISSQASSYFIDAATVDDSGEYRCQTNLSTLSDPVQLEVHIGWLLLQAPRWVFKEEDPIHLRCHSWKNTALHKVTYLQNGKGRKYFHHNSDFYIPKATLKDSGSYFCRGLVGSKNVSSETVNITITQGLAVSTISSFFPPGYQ

[4] = target: T3, FcγRIIb extracellular domain, His tag; experiment: SPR, KD ratio
[5] = target: T5, FcγRIa extracellular domain, His tag (human, UniProt P12314 16-292); experiment: SPR, KD ratio
T5 construct: whole entry named; also called FcgRIa

[6] = target: T3, FcγRIIb extracellular domain, His tag; experiment: SPR kinetics, antibody captured
[7] = target: T5, FcγRIa extracellular domain, His tag; experiment: SPR kinetics, antibody captured
T5 sequence (P12314 16-292): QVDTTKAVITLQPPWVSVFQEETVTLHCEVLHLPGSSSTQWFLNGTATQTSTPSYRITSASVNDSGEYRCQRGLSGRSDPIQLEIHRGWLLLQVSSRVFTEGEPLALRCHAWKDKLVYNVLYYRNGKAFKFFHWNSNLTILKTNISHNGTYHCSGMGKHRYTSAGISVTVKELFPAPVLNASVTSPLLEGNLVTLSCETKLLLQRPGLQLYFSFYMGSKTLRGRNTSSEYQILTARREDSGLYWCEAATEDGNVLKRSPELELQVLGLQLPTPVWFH

[8] = target: T2, FcγRIIa R type extracellular domain, …; experiment: SPR, bound amount per captured antibody
[9] = target: T3, FcγRIIb extracellular domain, His tag; experiment: SPR, bound amount per captured antibody

Row | Binder | Relative FcgRIIaH-binding Activity [1] | Relative FcgRIIaR-binding Activity [2] | Relative FcgRIIIaV-binding Activity [3] | Relative FcgRIIb-binding Activity [4] | Relative FcgRIa-binding Activity [5] | Kd [6] [nM] | Kd [7] [nM] | Relative FcgRIIaR-binding Activity [8] | Relative FcgRIIb-binding Activity [9]
1 | IL6R-P589/IL6R-L (antibody, human IgG1, kappa) heavy: QVQLQESGPGLVKPSETLSLTCAVSGHSISHDHAWSWVRQPPGEGLEWIGFISYSGITNYNPSLQGRVTISRDNSKNTLYLQMNSLRAEDTAVYYCARSLARTTAMDYWGEGTLVTVSS[human IgG1 constant region with P238D Y296E (EU numbers) not shown] light: DIQMTQSPSSLSASVGDRVTITCRASQDISSYLNWYQQKPGKAPKLLIYYTSRLHSGVPSRFSGSGSGTDFTFTISSLQPEDIATYYCQQGNTLPYTFGQGTKVEIKRTVAAPSVFIFPPSDEQLKSGTASVVCLLNNFYPREAKVQWKVDNALQSGNSQESVTEQDSKDSTYSLSSTLTLSKADYEKHKVYACEVTHQGLSSPVTKSFNRGEC | 0.012 fold of IL6R-G1d/IL6R-L | 0.046 fold of IL6R-G1d/IL6R-L | 0.008 fold of IL6R-G1d/IL6R-L | 2.86 fold of IL6R-G1d/IL6R-L | 0.033 fold of IL6R-G1d/IL6R-L | 1800 | 10 | 27 % of IL6R-G1d/IL6R-L | 142 % of IL6R-G1d/IL6R-L
2 | IL6R-P718/IL6R-L (antibody, human IgG1, kappa) heavy: QVQLQESGPGLVKPSETLSLTCAVSGHSISHDHAWSWVRQPPGEGLEWIGFISYSGITNYNPSLQGRVTISRDNSKNTLYLQMNSLRAEDTAVYYCARSLARTTAMDYWGEGTLVTVSS[human IgG1 constant region with P238D H268P (EU numbers) not shown] light: DIQMTQSPSSLSASVGDRVTITCRASQDISSYLNWYQQKPGKAPKLLIYYTSRLHSGVPSRFSGSGSGTDFTFTISSLQPEDIATYYCQQGNTLPYTFGQGTKVEIKRTVAAPSVFIFPPSDEQLKSGTASVVCLLNNFYPREAKVQWKVDNALQSGNSQESVTEQDSKDSTYSLSSTLTLSKADYEKHKVYACEVTHQGLSSPVTKSFNRGEC | – | – | – | – | – | 3200 | – | – | –
3 | IL6R-P720/IL6R-L (antibody, human IgG1, kappa) heavy: QVQLQESGPGLVKPSETLSLTCAVSGHSISHDHAWSWVRQPPGEGLEWIGFISYSGITNYNPSLQGRVTISRDNSKNTLYLQMNSLRAEDTAVYYCARSLARTTAMDYWGEGTLVTVSS[human IgG1 constant region with P238D S324H (EU numbers) not shown] light: DIQMTQSPSSLSASVGDRVTITCRASQDISSYLNWYQQKPGKAPKLLIYYTSRLHSGVPSRFSGSGSGTDFTFTISSLQPEDIATYYCQQGNTLPYTFGQGTKVEIKRTVAAPSVFIFPPSDEQLKSGTASVVCLLNNFYPREAKVQWKVDNALQSGNSQESVTEQDSKDSTYSLSSTLTLSKADYEKHKVYACEVTHQGLSSPVTKSFNRGEC | 0.013 fold of IL6R-G1d/IL6R-L | 0.039 fold of IL6R-G1d/IL6R-L | 0.005 fold of IL6R-G1d/IL6R-L | – | 0.034 fold of IL6R-G1d/IL6R-L | – | 9.7 | 21.5 % of IL6R-G1d/IL6R-L | –
4 | IL6R-P598/IL6R-L (antibody, human IgG1, kappa) heavy: QVQLQESGPGLVKPSETLSLTCAVSGHSISHDHAWSWVRQPPGEGLEWIGFISYSGITNYNPSLQGRVTISRDNSKNTLYLQMNSLRAEDTAVYYCARSLARTTAMDYWGEGTLVTVSS[human IgG1 constant region with P238D Y296N (EU numbers) not shown] light: DIQMTQSPSSLSASVGDRVTITCRASQDISSYLNWYQQKPGKAPKLLIYYTSRLHSGVPSRFSGSGSGTDFTFTISSLQPEDIATYYCQQGNTLPYTFGQGTKVEIKRTVAAPSVFIFPPSDEQLKSGTASVVCLLNNFYPREAKVQWKVDNALQSGNSQESVTEQDSKDSTYSLSSTLTLSKADYEKHKVYACEVTHQGLSSPVTKSFNRGEC | – | – | – | – | – | – | – | 31.6 % of IL6R-G1d/IL6R-L | 149 % of IL6R-G1d/IL6R-L
5 | IL6R-P596/IL6R-L (antibody, human IgG1, kappa) heavy: QVQLQESGPGLVKPSETLSLTCAVSGHSISHDHAWSWVRQPPGEGLEWIGFISYSGITNYNPSLQGRVTISRDNSKNTLYLQMNSLRAEDTAVYYCARSLARTTAMDYWGEGTLVTVSS[human IgG1 constant region with P238D Q295M (EU numbers) not shown] light: DIQMTQSPSSLSASVGDRVTITCRASQDISSYLNWYQQKPGKAPKLLIYYTSRLHSGVPSRFSGSGSGTDFTFTISSLQPEDIATYYCQQGNTLPYTFGQGTKVEIKRTVAAPSVFIFPPSDEQLKSGTASVVCLLNNFYPREAKVQWKVDNALQSGNSQESVTEQDSKDSTYSLSSTLTLSKADYEKHKVYACEVTHQGLSSPVTKSFNRGEC | – | – | – | – | – | – | – | 32.2 % of IL6R-G1d/IL6R-L | 144 % of IL6R-G1d/IL6R-L
6 | IL6R-P599/IL6R-L (antibody, human IgG1, kappa) heavy: QVQLQESGPGLVKPSETLSLTCAVSGHSISHDHAWSWVRQPPGEGLEWIGFISYSGITNYNPSLQGRVTISRDNSKNTLYLQMNSLRAEDTAVYYCARSLARTTAMDYWGEGTLVTVSS[human IgG1 constant region with P238D V323I (EU numbers) not shown] light: DIQMTQSPSSLSASVGDRVTITCRASQDISSYLNWYQQKPGKAPKLLIYYTSRLHSGVPSRFSGSGSGTDFTFTISSLQPEDIATYYCQQGNTLPYTFGQGTKVEIKRTVAAPSVFIFPPSDEQLKSGTASVVCLLNNFYPREAKVQWKVDNALQSGNSQESVTEQDSKDSTYSLSSTLTLSKADYEKHKVYACEVTHQGLSSPVTKSFNRGEC | – | – | – | – | – | – | – | 30.9 % of IL6R-G1d/IL6R-L | 149 % of IL6R-G1d/IL6R-L
7 | IL6R-P595/IL6R-L (antibody, human IgG1, kappa) heavy: QVQLQESGPGLVKPSETLSLTCAVSGHSISHDHAWSWVRQPPGEGLEWIGFISYSGITNYNPSLQGRVTISRDNSKNTLYLQMNSLRAEDTAVYYCARSLARTTAMDYWGEGTLVTVSS[human IgG1 constant region with P238D Q295V (EU numbers) not shown] light: DIQMTQSPSSLSASVGDRVTITCRASQDISSYLNWYQQKPGKAPKLLIYYTSRLHSGVPSRFSGSGSGTDFTFTISSLQPEDIATYYCQQGNTLPYTFGQGTKVEIKRTVAAPSVFIFPPSDEQLKSGTASVVCLLNNFYPREAKVQWKVDNALQSGNSQESVTEQDSKDSTYSLSSTLTLSKADYEKHKVYACEVTHQGLSSPVTKSFNRGEC | 0.01 fold of IL6R-G1d/IL6R-L | 0.039 fold of IL6R-G1d/IL6R-L | 0.005 fold of IL6R-G1d/IL6R-L | 2.31 fold of IL6R-G1d/IL6R-L | – | 2200 | – | 23.5 % of IL6R-G1d/IL6R-L | 112 % of IL6R-G1d/IL6R-L
8 | IL6R-P601/IL6R-L (antibody, human IgG1, kappa) heavy: QVQLQESGPGLVKPSETLSLTCAVSGHSISHDHAWSWVRQPPGEGLEWIGFISYSGITNYNPSLQGRVTISRDNSKNTLYLQMNSLRAEDTAVYYCARSLARTTAMDYWGEGTLVTVSS[human IgG1 constant region with P238D S298M (EU numbers) not shown] light: DIQMTQSPSSLSASVGDRVTITCRASQDISSYLNWYQQKPGKAPKLLIYYTSRLHSGVPSRFSGSGSGTDFTFTISSLQPEDIATYYCQQGNTLPYTFGQGTKVEIKRTVAAPSVFIFPPSDEQLKSGTASVVCLLNNFYPREAKVQWKVDNALQSGNSQESVTEQDSKDSTYSLSSTLTLSKADYEKHKVYACEVTHQGLSSPVTKSFNRGEC | 0.01 fold of IL6R-G1d/IL6R-L | 0.048 fold of IL6R-G1d/IL6R-L | 0.006 fold of IL6R-G1d/IL6R-L | – | 0.0825 fold of IL6R-G1d/IL6R-L | – | 4 | 27.3 % of IL6R-G1d/IL6R-L | –

From US20220411483A1 (Chugai, published 2022)
